Test results from US9192657B2, “Activated protein C variants with normal cytoprotective activity but reduced anticoagulant activity” (The Scripps Research Institute, dated 2015).

Key:
Assay in all cases: cell-based or functional assay
[1] = biological target: T1, endothelial protein C receptor (EPCR) on cells (Homo sapiens (Human), UniProt Q9UNN8)
[2] = biological target: T2, protease activated receptor-1 (PAR-1) (Homo sapiens (Human), UniProt P25116)
factor Va = factor Va (human, UniProt P12259)
[3] = biological target: T1, endothelial protein C receptor (EPCR) …; remark: listed apart in the source
[4] = biological target: T2, protease activated receptor-1 (PAR-1); remark: listed apart in the source
[5] = biological target: T1, endothelial protein C receptor (EPCR) …; remark: listed apart in the source
[6] = biological target: T2, protease activated receptor-1 (PAR-1); remark: listed apart in the source

half-maximum inhibition of staurosporine-induced apoptosis (EA.hy926 cells, Apopercentage dye) [1] [nM] | half-maximum inhibition of staurosporine-induced apoptosis (Eahy926 cells, Apopercentage staining) [1] [nM] | reduction of activated caspase-3-positive endothelial cells after staurosporine [1] [%] | half-maximum inhibition of staurosporine-induced apoptosis (EA.hy926 cells, Apopercentage dye) [2] [nM] | half-maximum inhibition of staurosporine-induced apoptosis (Eahy926 cells, Apopercentage staining) [2] [nM] | reduction of activated caspase-3-positive endothelial cells after staurosporine [2] [%] | anticoagulant activity (% rwt-APC), APTT clotting assay in human plasma (factor Va) [% rwt-APC] | cytoprotective activity (% rwt-APC), from the concentrations for half-maximal inhibition of apoptosis [3] [% rwt-APC] | cytoprotective activity (% rwt-APC), from the concentrations for half-maximal inhibition of apoptosis [4] [% rwt-APC] | cytoprotective activity (% wt-APC) [5] [% wt-APC] | cytoprotective activity (% wt-APC) [6] [% wt-APC] | Binder
0.17 | 0.27 | ~70 | 0.17 | 0.27 | ~70 | 13 | 94 | 94 | 89 | 89 | RR229/230AA-APC (enzyme) not shown
– | – | – | – | – | – | 23 | – | – | – | – | S360A-APC (enzyme) not shown
